Data taken from the supplement of paper PMC12340968.
Each value is the number of isolates with that result; steps that no isolate showed are left empty. MIC of human isolates of monophasic S. Typhimurium, automated broth microdilution (BD Phoenix M50 panel; '<=' and '>' mark the panel's ends); higher = less susceptible. No active / inactive call per row; the paper applies CLSI M100 breakpoints.

Tested on: Salmonella enterica serovar 1,4,[5],12:i:- (monophasic Typhimurium) (256 isolates)
Experiment: Isolates counted by MIC; Broth microdilution on BD Phoenix M50 Gram-negative panels.

| Structure (SMILES) | isolate count (MIC: 8 µg/mL) | isolate count (MIC: 16 µg/mL) | isolate count (MIC: 0.5 µg/mL) | isolate count (MIC: 1 µg/mL) | isolate count (MIC: 4 µg/mL) | isolate count (MIC: ≤0.25 µg/mL) | isolate count (MIC: 2 µg/mL) | other results |
| --- | --- | --- | --- | --- | --- | --- | --- | --- |
| NCC[C@H](O)C(=O)N[C@@H]1C[C@H](N)[C@@H](O[C@H]2O[C@H](CN)[C@@H](O)[C@H](O)[C@H]2O)[C@H](O)[C@H]1O[C@H]1O[C@H](CO)[C@@H](O)[C@H](N)[C@H]1O [amikacin] | 16 | 1 |  |  |  |  |  | isolate count (MIC: >64 µg/mL): 3; isolate count (MIC: ≤4 µg/mL): 236 |
| CC1(C)S[C@@H]2[C@H](NC(=O)[C@H](N)c3ccccc3)C(=O)N2[C@H]1C(=O)O [ampicillin] |  |  |  |  |  |  |  | isolate count (MIC: >32 µg/mL): 215; isolate count (MIC: ≤2 µg/mL): 41 |
| C[C@H]1[C@H](NC(=O)/C(=N\OC(C)(C)C(=O)O)c2csc(N)n2)C(=O)N1S(=O)(=O)O [aztreonam] | 18 | 7 | 2 | 2 | 5 | 152 |  | isolate count (MIC: >16 µg/mL): 70 |
| CO/N=C(\C(=O)N[C@@H]1C(=O)N2C(C(=O)O)=C(COC(C)=O)CS[C@H]12)c1csc(N)n1 [cefotaxime] |  | 7 | 10 | 2 | 1 | 138 | 2 | isolate count (MIC: >16 µg/mL): 96 |
| CO[C@@]1(NC(=O)Cc2cccs2)C(=O)N2C(C(=O)O)=C(COC(N)=O)CS[C@@H]21 [cefoxitin] | 4 | 6 |  |  | 19 |  |  | isolate count (MIC: 32 µg/mL): 4; isolate count (MIC: 64 µg/mL): 3; isolate count (MIC: >64 µg/mL): 9; isolate count (MIC: ≤2 µg/mL): 211 |
| CC(C)(O/N=C(\C(=O)N[C@@H]1C(=O)N2C(C(=O)[O-])=C(C[n+]3ccccc3)CS[C@H]12)c1csc(N)n1)C(=O)O [ceftazidime] | 2 | 14 | 44 | 1 | 17 | 105 | 24 | isolate count (MIC: >16 µg/mL): 49 |
| O=C(N[C@H](CO)[C@H](O)c1ccc([N+](=O)[O-])cc1)C(Cl)Cl [chloramphenicol] | 10 | 3 |  |  |  |  |  | isolate count (MIC: >32 µg/mL): 129; isolate count (MIC: ≤4 µg/mL): 114 |
| O=C(O)c1cn(C2CC2)c2cc(N3CCNCC3)c(F)cc2c1=O [ciprofloxacin] |  |  | 83 | 22 |  |  | 11 | isolate count (MIC: 0.03125 µg/mL): 84; isolate count (MIC: 0.0625 µg/mL): 9; isolate count (MIC: 0.125 µg/mL): 4; isolate count (MIC: 0.25 µg/mL): 35; isolate count (MIC: >2 µg/mL): 2; isolate count (MIC: ≤0.01563 µg/mL): 6 |
| CCC(C)CCCC(=O)N[C@@H](CCN)C(=O)N[C@H](C(=O)N[C@@H](CCN)C(=O)N[C@H]1CCNC(=O)[C@H]([C@@H](C)O)NC(=O)[C@H](CCN)NC(=O)[C@H](CCN)NC(=O)[C@H](CC(C)C)NC(=O)[C@@H](CC(C)C)NC(=O)[C@H](CCN)NC1=O)[C@@H](C)O (some centres not stated) [colistin] | 5 |  | 243 |  | 8 |  |  |  |
| C[C@@H](O)[C@H]1C(=O)N2C(C(=O)O)=C(S[C@@H]3CN[C@H](C(=O)Nc4cccc(C(=O)O)c4)C3)[C@H](C)[C@H]12 [ertapenem] |  |  | 1 | 6 |  | 246 |  | isolate count (MIC: >8 µg/mL): 3 |
| C[C@@H](O)[C@H]1C(=O)N2C(C(=O)O)=C(SCCNC=N)C[C@H]12 [imipenem] |  |  | 70 | 2 | 1 | 179 | 1 | isolate count (MIC: >8 µg/mL): 3 |
| C[C@@H](O)[C@H]1C(=O)N2C(C(=O)O)=C(S[C@@H]3CN[C@H](C(=O)N(C)C)C3)[C@H](C)[C@H]12 [meropenem] | 2 |  |  |  |  |  |  | isolate count (MIC: 0.25 µg/mL): 1; isolate count (MIC: >8 µg/mL): 1; isolate count (MIC: ≤0.125 µg/mL): 252 |
| O=C1CN(/N=C/c2ccc([N+](=O)[O-])o2)C(=O)N1 [nitrofurantoin] |  |  |  |  |  |  |  | isolate count (MIC: 64 µg/mL): 7; isolate count (MIC: 128 µg/mL): 10; isolate count (MIC: ≤32 µg/mL): 239 |
| CN(C)[C@@H]1C(O)=C(C(N)=O)C(=O)[C@@]2(O)C(O)=C3C(=O)c4c(O)cccc4[C@@](C)(O)[C@H]3C[C@@H]12 [tetracycline] |  |  |  |  | 2 |  | 16 | isolate count (MIC: >16 µg/mL): 219; isolate count (MIC: ≤1 µg/mL): 19 |
| CN(C)c1cc(NC(=O)CNC(C)(C)C)c(O)c2c1C[C@H]1C[C@H]3[C@H](N(C)C)C(O)=C(C(N)=O)C(=O)[C@@]3(O)C(O)=C1C2=O [tigecycline] | 1 |  | 109 | 21 |  | 122 | 3 |  |
